The supplement of paper PMC8728848
This is one part of the list.

Columns and labels:
Assay in all cases: glycan array binding signal (z-score within array); higher = stronger binding
Conditions in all cases: glycan notation: IUPAC condensed, linker removed
[1] = biological target: Neu5Ac(a2-6)Gal(b1-4)GlcNAc(b1-3)Gal(b1-4)GlcNAc
Outline: (§1)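 The binding signal is a Z-score computed within each array. Data were drawn from 3228 arrays in the Consortium for Functional Glycomics database, restricted to those with a known protein sequence. Scores were averaged over arrays of the same protein sequence at different concentrations or buffers, and over linkers, and negative values can be taken as non-binding.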

[2] = biological target: Neu5Ac(a2-6)Gal(b1-4)GlcNAc(b1-3)Gal(b1-4)GlcNAc(b1-3)Gal(b1-4)GlcNAc
Outline: as §1

[3] = biological target: Neu5Ac(a2-6)Gal(b1-4)GlcNAc(b1-3)Gal(b1-4)[Fuc(a1-3)]GlcNAc(b1-3)Gal(b1-4)[Fuc(a1-3)]GlcNAc
Outline: as §1

[4] = biological target: Neu5Ac(a2-6)Gal(b1-4)GlcNAc(b1-3)GalNAc
Outline: as §1

[5] = biological target: Neu5Ac(a2-6)Gal(b1-4)GlcNAc6S
Outline: as §1

[6] = biological target: Neu5Ac(a2-6)GalNAc
Outline: as §1

[7] = biological target: Neu5Ac(a2-6)GalNAc(b1-4)GlcNAc
Outline: as §1

[8] = biological target: Neu5Ac(a2-6)GlcNAc(b1-4)GlcNAc
Outline: as §1

[9] = biological target: Neu5Ac(a2-6)GlcNAc(b1-4)GlcNAc(b1-4)GlcNAc
Outline: as §1

[10] = biological target: Neu5Ac(a2-8)Neu5Ac
Outline: as §1

[11] = biological target: Neu5Ac(a2-8)Neu5Ac(a2-3)Gal(b1-4)Glc
Outline: as §1

[12] = biological target: Neu5Ac(a2-8)Neu5Ac(a2-3)[Gal(b1-3)GalNAc(b1-4)]Gal(b1-4)Glc
Outline: as §1

[13] = biological target: Neu5Ac(a2-8)Neu5Ac(a2-3)[GalNAc(b1-4)]Gal(b1-4)Glc
Outline: as §1

[14] = biological target: Neu5Ac(a2-8)Neu5Ac(a2-8)Neu5Ac
Outline: as §1

[15] = biological target: Neu5Ac(a2-8)Neu5Ac(a2-8)Neu5Ac(a2-3)Gal(b1-4)Glc
Outline: as §1

[16] = biological target: Neu5Ac(a2-8)Neu5Ac(a2-8)Neu5Ac(a2-3)[GalNAc(b1-4)]Gal(b1-4)Glc
Outline: as §1

[17] = biological target: Neu5Ac(a2-8)Neu5Ac(a2-8)Neu5Ac(a2-8)Neu5Ac(a2-3)[GalNAc(b1-4)]Gal(b1-4)Glc
Outline: as §1

[18] = biological target: Neu5Ac(b2-6)Gal(b1-4)GlcNAc
Outline: as §1

[19] = biological target: Neu5Ac(b2-6)GalNAc
Outline: as §1

[20] = biological target: Neu5Ac9Ac(a2-3)Gal(b1-3)GlcNAc
Outline: as §1

[21] = biological target: Neu5Ac9Ac(a2-3)Gal(b1-4)GlcNAc
Outline: as §1

[22] = biological target: Neu5Ac9Ac(a2-6)Gal(b1-4)GlcNAc
Outline: as §1

[23] = biological target: Neu5Gc(a2-3)Gal(b1-3)GlcNAc
Outline: as §1

[24] = biological target: Neu5Gc(a2-3)Gal(b1-3)[Fuc(a1-4)]GlcNAc
Outline: as §1

[25] = biological target: Neu5Gc(a2-3)Gal(b1-4)Glc
Outline: as §1

[26] = biological target: Neu5Gc(a2-3)Gal(b1-4)GlcNAc
Outline: as §1

[27] = biological target: Neu5Gc(a2-3)Gal(b1-4)[Fuc(a1-3)]GlcNAc
Outline: as §1

[28] = biological target: Neu5Gc(a2-6)Gal(b1-4)GlcNAc
Outline: as §1

[29] = biological target: Neu5Gc(a2-6)GalNAc
Outline: as §1

[30] = biological target: Neu5Gc(b2-6)Gal(b1-4)GlcNAc
Outline: as §1

B1: SEX4 (Arabidopsis thaliana), Q944A8 (protein)
chain: TQAMGAVLTYRHELGMNYNFIRPDLIVGSCLQTPEDVDKLRKIGVKTIFCLQQDPDLEYFGVDISSIQAYAKKYSDIQHIRCEIRDFDAFDLRMRLPAVVGTLYKAVKRNGGVTYVHCTAGMGRAPAVALTYMFWVQGYKLMEAHKLLMSKRSCFPKLDAIRNATIDILTGLKRKTVTLTLKDKGFSRVEISGLDIGWGQRIPLTLGKGTGFWILKRELPEGQFEYKYIIDGEWTHNEAEPFIGPNKDGHTNNYAKVVDDPTSVDGTTRERLSSEDPELLEEERSKLIQFLETCSEAEV
glycan array binding signal (z-score) [1]: -0.138
glycan array binding signal (z-score) [2]: -0.454
glycan array binding signal (z-score) [3]: -0.231
glycan array binding signal (z-score) [4]: 2.32
glycan array binding signal (z-score) [5]: 2.46
glycan array binding signal (z-score) [6]: -0.51
glycan array binding signal (z-score) [7]: -0.017
glycan array binding signal (z-score) [8]: -0.322
glycan array binding signal (z-score) [9]: -0.448
glycan array binding signal (z-score) [10]: -0.065
glycan array binding signal (z-score) [11]: -0.514
glycan array binding signal (z-score) [12]: 0.258
glycan array binding signal (z-score) [13]: 0.064
glycan array binding signal (z-score) [14]: 0.467
glycan array binding signal (z-score) [15]: -0.314
glycan array binding signal (z-score) [16]: -0.165
glycan array binding signal (z-score) [17]: -0.419
glycan array binding signal (z-score) [18]: 0.111
glycan array binding signal (z-score) [19]: -0.558
glycan array binding signal (z-score) [20]: -0.482
glycan array binding signal (z-score) [21]: 0.554
glycan array binding signal (z-score) [22]: -0.471
glycan array binding signal (z-score) [23]: -0.009
glycan array binding signal (z-score) [24]: 1.06
glycan array binding signal (z-score) [25]: 1
glycan array binding signal (z-score) [26]: -0.104
glycan array binding signal (z-score) [27]: 1.5
glycan array binding signal (z-score) [28]: 0.489
glycan array binding signal (z-score) [29]: -0.403
glycan array binding signal (z-score) [30]: -0.09
